Data reported in PubChem BioAssay AID504339 (National Center for Advancing Translational Sciences (NCATS), 2011).
Values joined by “and” are separate entries in the source; they are usually repeats but may differ in a detail not shown here. Equal values may be shown once. Hit rate of the full screen: of about 390,000 compounds, about 17,000 (4.4%) were called active. The shares of active, inactive and inconclusive entries below differ from those in the screen. Calls follow the shape of the dose curve; as a rule, active = well fitted inhibition curve with a large enough effect; inconclusive = small, poorly fitted or top-dose-only effect; inactive = no such curve, though single readings can be large or run the other way. A potency beside an inconclusive call is a rough fit, not a confirmed value.

target: Lysine-specific demethylase 4A (Homo sapiens) (UniProt O75164); assay: qHTS Assay for Inhibitors of JMJD2A-Tudor Domain; details: AlphaScreen JMJD2A-Tudor / H3K4me3 peptide binding; activity change, negative = inhibition: at 114 µM (top of the series); also: nearly all actives have a fitted effect of over 50% in size
% is scaled to controls: 0 for no effect and ±100 for the full control effect; potency is read from the fitted curve at half-maximal effect; tags tell the direction and shape of the fitted curve.

Sequence of UniProt O75164 (O75164 whole entry, looked up, the tested form may be a part): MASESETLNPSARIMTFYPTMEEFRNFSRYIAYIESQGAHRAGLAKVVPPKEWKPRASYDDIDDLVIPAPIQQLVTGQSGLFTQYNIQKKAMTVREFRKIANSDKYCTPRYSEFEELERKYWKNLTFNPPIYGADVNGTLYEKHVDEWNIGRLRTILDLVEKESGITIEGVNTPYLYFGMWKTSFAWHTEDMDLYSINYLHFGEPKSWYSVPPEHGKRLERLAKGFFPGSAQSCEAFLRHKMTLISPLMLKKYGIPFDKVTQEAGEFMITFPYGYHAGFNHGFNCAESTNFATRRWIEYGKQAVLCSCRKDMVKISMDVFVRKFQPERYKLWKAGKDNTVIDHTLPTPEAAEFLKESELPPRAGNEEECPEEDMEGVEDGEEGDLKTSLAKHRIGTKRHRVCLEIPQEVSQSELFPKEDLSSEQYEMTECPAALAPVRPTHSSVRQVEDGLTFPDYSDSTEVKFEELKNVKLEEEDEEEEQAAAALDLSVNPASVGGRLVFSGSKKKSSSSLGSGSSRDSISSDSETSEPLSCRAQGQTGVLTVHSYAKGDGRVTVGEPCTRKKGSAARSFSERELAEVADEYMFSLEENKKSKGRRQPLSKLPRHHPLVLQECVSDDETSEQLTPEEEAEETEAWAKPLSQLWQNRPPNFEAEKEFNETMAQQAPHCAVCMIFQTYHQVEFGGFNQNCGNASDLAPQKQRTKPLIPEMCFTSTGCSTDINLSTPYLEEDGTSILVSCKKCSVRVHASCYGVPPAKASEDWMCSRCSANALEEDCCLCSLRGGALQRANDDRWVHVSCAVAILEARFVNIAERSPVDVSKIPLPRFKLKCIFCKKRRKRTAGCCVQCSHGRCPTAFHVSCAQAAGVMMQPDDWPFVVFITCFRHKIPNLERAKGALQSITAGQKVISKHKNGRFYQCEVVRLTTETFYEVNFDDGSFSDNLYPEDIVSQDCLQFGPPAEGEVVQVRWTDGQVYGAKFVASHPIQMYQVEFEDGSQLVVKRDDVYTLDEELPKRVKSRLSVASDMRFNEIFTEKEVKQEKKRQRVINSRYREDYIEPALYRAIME

Activity change, negative = inhibition, inactive:
CCOC(=O)[C@@H]1[C@H]2COc3ccc(Br)cc3[C@@H]2N2C(=O)N(c3ccc(C)cc3)C(=O)[C@@]12C -30.7%
CCOc1ccccc1CNC(=O)CCCn1nc(C)c2sc3ccccc3c2c1=O -1.32%
Oc1ccccc1/C=N/Nc1ncc(Br)cn1 -11.7%
COc1ccc(N2CCN(c3oc(-c4ccccc4C)nc3S(=O)(=O)c3ccccc3)CC2)cc1 -35.8%
COc1ccc(N(CC(=O)Nc2ccccc2C(F)(F)F)C2=NC3CS(=O)(=O)CC3S2)cc1 (stereo unspecified) -2.72%
CCn1c(SCC(=O)c2ccc(C)cc2)nnc1-c1ccoc1C -15.1%
COc1ccc(C2=NN(C(=O)COc3ncnc4ccccc34)C(c3ccco3)C2)cc1 (stereo unspecified) -21%
COc1ccccc1NC(NC(=O)c1cccnc1)C(Cl)(Cl)Cl (stereo unspecified) -14%
Cc1ccc(NC(=O)CN2CCC(NC(=O)c3ccccc3F)CC2)cc1C -27.1%
CN(C)S(=O)(=O)c1ccc(Cl)c(NC(=O)COC(=O)/C=C/c2ccco2)c1 -19.6%
NC(=O)C1CCN(C(=S)c2cccs2)CC1 -1.58%
O=C(NC(Cc1ccccc1)C(=O)O)/C(=C\c1ccccc1)NC(=O)c1ccc(Br)o1 (stereo unspecified) -2.84%

Potency, active:
O=c1[nH]n(-c2ccccn2)c(=O)c2ccccc12 79.4 µM
Cc1cccc(CN2CCN(c3ccccn3)CC2)c1 3.16 µM
CO/N=C\CC(=O)Nc1ccc(Cl)cc1Cl 14.1 µM
COc1cccc(C(=O)NCC(c2ccc(N(C)C)cc2)N2CCc3ccccc32)c1OC (stereo unspecified) 10 µM
COc1cc(/C=C2\SC(=O)N(Cc3ccc(F)cc3)C2=O)cc([N+](=O)[O-])c1O 28.2 µM
Cc1cc(OCCN2CCCC2)ccc1[N+](=O)[O-] 3.16 µM
Cc1cc(/C=C2\SC(=O)N(C)C2=O)c(C)n1-c1cccc(C(=O)O)c1 56.2 µM
COc1ccc(S(=O)(=O)Nc2c(F)cccc2F)cc1 25.1 µM
CC1=CC(c2ccccc2)n2nc(N3C(=O)CCC3=O)nc2N1 (stereo unspecified) 79.4 µM
OCCN(Cc1ccccc1)Cc1ccccc1F 1.78 µM

Potency, inconclusive:
CCCC12CN3CC(C)(CN(C1)C3c1cn(CC)c3ccccc13)C2=O (stereo unspecified) 63.1 µM [inhibitor, partial curve]
O=C(c1sc2cc([N+](=O)[O-])ccc2c1Cl)N1CCCCC1 79.4 µM [inhibitor, partial curve]
COc1ccc(-n2c(Cc3cccn3C)nnc2SCC(=O)Nc2cccc(C)c2C)cc1 63.1 µM [inhibitor, partial curve]
CCN(/C=N/c1sc2c(c1C#N)CCCCC2)CC 63.1 µM [inhibitor, partial curve, poor fit]
COc1ccc(/C=C2\SC(N3CCc4ccccc4C3)=NC2=O)cc1OC 79.4 µM [inhibitor, partial curve]
COc1cccc(C(=O)Nc2nc(-c3ccccc3)c(-c3ccccc3)o2)c1 11.2 µM [inhibitor, partial curve]
O=C(Oc1ccc(N(Cc2cccs2)C2=NS(=O)(=O)c3ccccc32)cc1)c1ccccc1Cl 3.55 µM [inhibitor, single point]
COc1ccc(S(=O)(=O)Cc2ccc(C(=O)NC(C)C)o2)cc1 22.4 µM [inhibitor, full curve, poor fit]
CCN(CC)CCCn1c(=S)[nH]c2ccc(Cl)cc2c1=O 89.1 µM [inhibitor, partial curve]
CSc1ccc(/C=N/n2c(Cc3ccc(Br)cc3)n[nH]c2=S)cc1 56.2 µM [inhibitor, partial curve]
COc1cccc(-n2c(-c3ccco3)nc3c(cnn3-c3ccccc3C)c2=O)c1 56.2 µM [inhibitor, partial curve, poor fit]
CN(NS(C)(=O)=O)c1ncc(C(F)(F)F)cc1Cl 50.1 µM [inhibitor, partial curve]
O=C(Nc1ccc(F)cc1F)c1cc2ccc3cccnc3c2[nH]1 56.2 µM [inhibitor, partial curve]
Cc1ccc(Sc2ccc(CO)cc2[N+](=O)[O-])cc1 35.5 µM [inhibitor, partial curve]
Cn1ccnc1SCc1ccc(Cl)cc1Cl 31.6 µM [inhibitor, full curve]
S=c1[nH]nc([C@@H]2C[C@H]2c2ccccc2)n1-c1ccccc1Cl 17.8 µM [inhibitor, single point]
O=C(NCCc1cnc[nH]1)c1ccc(-c2ccccc2)cc1 50.1 µM [inhibitor, partial curve]
C[C@]12c3[nH]c4cc(-c5ccco5)ccc4c3CCN1C(=O)[C@@H](CC(=O)NCCCn1ccnc1)C[C@@H]2C(=O)N1CCOCC1 35.5 µM [inhibitor, partial curve]
O=C(N/N=C/c1ccc(O)c(O)c1)c1cccc(S(=O)(=O)N2CCCCC2)c1 20 µM [inhibitor, partial curve]
CCN1CCC(NC(=O)Nc2ccc(F)cc2F)CC1 31.6 µM [inhibitor, partial curve]
CNc1nc(N/N=C/c2cc3c(cc2[N+](=O)[O-])OCO3)nc(Nc2ccccc2)n1 35.5 µM [inhibitor, partial curve]
COc1cc(NC(=S)N2CCN(C(=O)c3ccco3)CC2)c(OC)cc1Cl 79.4 µM [inhibitor, single point]
CCOc1cccc(C(=O)Nc2ccc(N3CCCC3)cc2)c1 14.1 µM [inhibitor, full curve, poor fit]
Cc1ccc(C2CCN(C(=S)NC(C)C)C2)cc1 (stereo unspecified) 3.16 µM [inhibitor, partial curve, poor fit]
Cc1ccc(Nc2ccc([N+](=O)[O-])ccc2=O)cc1 15.8 µM [inhibitor, partial curve]
COC(=O)c1ccc(C2c3c(-c4ccc(Br)cc4)n[nH]c3C(=O)N2c2ccc(Cl)cc2)cc1 (stereo unspecified) 11.2 µM [inhibitor, full curve, poor fit]
C[C@@H]1CN([C@@H](C)CO)C(=O)c2cccc(NS(C)(=O)=O)c2O[C@H]1CN(C)Cc1ccc(Oc2ccccc2)cc1 3.98 µM [inhibitor, full curve, poor fit]
O=C(CCNc1cccc(F)c1)c1cccc([N+](=O)[O-])c1 50.1 µM [inhibitor, partial curve]
COC(=O)c1sc(NC(=O)c2ccc(Cn3cc(Cl)cn3)o2)c(C#N)c1C 70.8 µM [inhibitor, single point]
CCOc1cc(-c2cn(S(=O)(=O)c3cccc4nsnc34)nc2N)cc(OCC)c1OCC 28.2 µM [inhibitor, partial curve]
CCN(CC)c1ccc(NC(=O)CN2C(=O)NC3(CCc4ccccc43)C2=O)cc1 (stereo unspecified) 17.8 µM [inhibitor, full curve]
COc1cc(OC)c(C(=O)NNC(=S)NC2CCCCC2)cc1OC 89.1 µM [inhibitor, single point]
COCC(=O)Nc1nc2n(n1)C(c1ccc(Cl)cc1)CC(c1ccc(OC)cc1)N2 (stereo unspecified) 79.4 µM [inhibitor, partial curve]
CCNC(=O)N(C)c1nncnc1C(=O)NC 3.16 µM [inhibitor, full curve, poor fit]
CCc1nn(CCCN2CCN(c3cccc(Cl)c3)CC2)c(=O)n1CCOc1ccccc1 31.6 µM [inhibitor, partial curve] and 44.7 µM [inhibitor, partial curve]
Cc1csc(=Nc2ccc(S(=O)(=O)N3CCOCC3)cc2)n1Cc1ccco1 28.2 µM [inhibitor, full curve] and 35.5 µM [inhibitor, partial curve]
CCOC(=O)C1CCN(c2c([N+](=O)[O-])c(C(Cl)Cl)nn2-c2ccccc2)CC1 44.7 µM [inhibitor, partial curve]
CCN(Cc1ccccc1)c1ccc(/C=N/NS(=O)(=O)c2ccc(C)c([N+](=O)[O-])c2)cc1 31.6 µM [inhibitor, single point]
COC(=O)CC1=NN(c2ccc(OC)cc2)C(=O)/C1=C\c1ccc(Cl)cc1 44.7 µM [inhibitor, partial curve]
O=C(NCc1ccncc1)C(=O)C1C(=O)Nc2ccccc21 (stereo unspecified) 79.4 µM [inhibitor, single point]
Cc1cc(C)c(NC(=O)C2CCN(C(=O)N3CC(C)Oc4ccc(Cl)cc43)CC2)c(C)c1 (stereo unspecified) 39.8 µM [inhibitor, full curve]
Cn1cccc1/C=N/NC(=O)CNc1cccc2ccccc12 44.7 µM [inhibitor, partial curve]
COc1ccc(OC)c(NC(=O)CSc2nn3c(=O)c(C)nnc3s2)c1 89.1 µM [inhibitor, single point]
Cc1cc(OCC(=O)NNC(=S)NCC2CCCO2)cc(C)c1Cl (stereo unspecified) 89.1 µM [inhibitor, partial curve]
